PubChem BioAssay AID445 (National Center for Advancing Translational Sciences (NCATS), 2006)
The whole screen tested about 110,000 compounds, of which about 40 (0.04%) were called active. The inconclusive results got no clear call from the source; some entries with a clear call stand among them for comparison. Calls come from the whole dose curve; as a rule, active = well fitted curve in the direction sought with a large enough effect in the signal ratio (not every such curve was filed as active); inconclusive = small, poorly fitted or top-dose-only effect, or a change in a side signal; inactive = flat fitted curve, though single readings scatter; the % refers to the signal ratio. Potencies of inconclusive entries are doubtful fits and often do not repeat.

Test: IkB Signaling;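 for IkBa stabilization activation: 0% = basal untreated cells and 100% = reference inhibitor full response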
Conditions: ABC-DLBCL IkBa-CBG/CBR dual luciferase ratio (green luciferase fused to IkBa over red control in OCI-Ly3 lymphoma cells), 4 h; IkBa stabilization activation: at 57.1 µM (top of the series), scaled: untreated 0%, proteasome inhibitor 100% unless noted
Method in brief: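 In this assay, an IκBα–CBG68 fusion accumulates when IKK-driven degradation is blocked; native CBR normalizes for cell number. OCI-Ly3 cells were treated 4 h with compound and doxycycline, then green and red light read after Chroma-Glo addition.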
Potency is the fitted concentration of half-maximal effect.

Structure (SMILES)	IkBa stabilization activation	Potency
CCN1CCN(c2ncnc3c2cnn3-c2cccc(C)c2)CC1	inconclusive: -0.226% [signal inhibitor]	
O=S1(=O)c2cccc3cccc(c23)N1Cc1nnc(-c2ccccc2Br)o1	inconclusive: 5.65% [signal inhibitor]	
O=C(CSc1ncccc1C(=O)Oc1ccccc1Cl)Nc1ccccc1Cl	inactive	
CCOc1ccccc1NC(=O)C1CCCN1S(=O)(=O)c1ccc2nc(-c3ccccc3)[nH]c2c1 (stereo not drawn)	inconclusive: 1.83% [signal inhibitor]	
CCOc1ccc(S(=O)(=O)Nc2ccc3oc4c(c3c2)CC(C)CC4)cc1 (stereo not drawn)	inconclusive: 16.7% [signal inhibitor]	
O=C(Nc1ccc2c(c1)OCO2)c1ccc(Br)c(S(=O)(=O)N2CCCC2)c1	inconclusive: -5.48% [signal inhibitor]	
Cc1nnc(SCc2nc3ccccc3s2)n1-c1ccccc1	inconclusive: 16.5% [signal inhibitor]	
CC(C)CN(CC(C)C)CC(O)Cn1cc(/C=C/C(=O)c2ccccc2)c2ccccc21 (stereo not drawn)	inconclusive: 2.2% [signal inhibitor]	
CCOc1ccccc1CNC(=O)Cn1nc(N2CCN(c3ccccc3)CC2)ccc1=O	inactive	
COc1ccc(C)c2sc(NC(=O)c3ccc(S(=O)(=O)N4CCCC4)cc3)nc12	inconclusive: 0.779% [signal inhibitor]	
COc1ccc(C(=O)NCc2ccc3c(c2)CCN3C(=O)c2ccc(F)cc2)cc1	inconclusive: 0.648% [signal inhibitor]	
COc1ccc(-c2onc(C)c2C)cc1S(=O)(=O)NCc1cccs1	inactive	
COc1ccc2c(c1)c1ncn(Cc3ccco3)c(=O)c1n2C	inactive	
CCN1C(=O)c2c(C)nc3ccccc3c2C1=O	inactive	
COc1ccc(Nc2ncnc3c2cnn3Cc2ccccc2)cc1		inconclusive: 39.8 µM [signal inhibitor, single point]
CC1=C(C(=O)OCc2ccc(C)cc2)C(c2ccccc2C(F)(F)F)CC(=O)N1 (stereo not drawn)	inconclusive: 3.65% [signal inhibitor]	
O=C(c1cccc(COCC(F)(F)C(F)F)c1)N1CCN(c2ccccc2)CC1	inconclusive: 3.21% [signal inhibitor]	
Cc1ccc(OCCSc2nc3ccccc3n2CC(=O)N2CCOCC2)cc1	inconclusive: -0.603% [signal inhibitor]	
COC(=O)c1c(NC(=O)c2ccc(Cl)c(Cl)c2)sc2c1CCCC2		inconclusive: 3.16 µM [signal inhibitor, full curve]
CCOc1ccc(NC(=O)CSc2nnc3scc(-c4ccccc4)n23)cc1	inconclusive: 0.231% [signal inhibitor]	
Nc1[nH]nc2nc3ccccc3nc12	inconclusive: -0.31% [signal inhibitor]	
Cc1ccc(-n2ncc(C(=O)Nc3ccc4c(c3)OCCO4)c2C2CCN(C(=O)OC(C)(C)C)CC2)cc1C	inconclusive: -1.71% [signal inhibitor]	
Fc1ccccc1OCCSc1nnnn1-c1ccccc1		inconclusive: 25.1 µM [signal inhibitor, partial curve]

Structure (SMILES)	IkBa stabilization activation	Potency
COc1ccccc1N1CCN(C(=O)Cn2ncc3c2-c2cc(C)ccc2OC3)CC1	inconclusive: -1.22% [signal inhibitor]	
COC(=O)c1cc(NC(=O)Cc2coc3cc(OC)ccc23)cc(C(=O)OC)c1	inconclusive: 0.554% [signal inhibitor]	
COc1cccc(-c2nc(CS(=O)(=O)CC(=O)Nc3cccc(C(C)=O)c3)c(C)o2)c1	inconclusive: 2.4% [signal inhibitor]	
COc1cc(CN(C(=O)c2ccc(OC(C)C)cc2)c2ccccn2)cc(OC)c1OC	inconclusive: 1.05% [signal inhibitor]	
Cc1[nH]nc(-c2ccc(O)cc2O)c1-c1ccc(Cl)cc1	inconclusive: 11.5% [signal inhibitor]	
Cc1cc(C)cc(NC(=O)CSc2c(C(C)C)cnc3c2c(=O)n(C)c(=O)n3C)c1	inconclusive: 2.65% [signal inhibitor]	
CCOC(=O)c1ccccc1NC(=O)CSc1nnc(CC)n2c1cc1occc12	inconclusive: 0.809% [signal inhibitor]	
COc1ccc(C)cc1NC(=O)c1cc(S(=O)(=O)N2CCC(C)CC2)ccc1F	inconclusive: -0.438% [signal inhibitor]	
CCCCc1ccc(C(=O)Nc2ccc3nc(N4CCN(CC)CC4)cc(C)c3c2)cc1	inconclusive: -10.1% [signal inhibitor]	
O=C(CSc1nnc2ccccn12)c1ccccc1		inconclusive: 15.8 µM [signal inhibitor, partial curve]
CCOC(=O)c1cc(C)n(CC2CCC(C(=O)Nc3ccc(OC)cc3)CC2)c1C (stereo not drawn)	inconclusive: -1.76% [signal inhibitor]	
CCc1ccccc1NC(=O)c1cc(-c2ccc(Cl)s2)nc2ccccc12	inconclusive: 1.55% [signal inhibitor]	
Cc1oc(-c2ccccc2F)nc1Cn1c(SCc2cccc(C(F)(F)F)c2)nc2ccncc21	inconclusive: 0.412% [signal inhibitor]	
CCOc1ccc2nc(N3CCCC(C(=O)NCCCN4CCOCC4)C3)sc2c1 (stereo not drawn)	inactive	
CCOc1ccccc1NC(=O)Cn1c(=O)n(Cc2ccc(OC)cc2)c(=O)c2oc3ccccc3c21	inactive	
N#Cc1nc(Cc2ccccc2)oc1N1CCN(c2ccccc2)CC1	inactive	
COc1ccccc1-c1nnc(C2CCN(C(=O)c3ccccc3C)CC2)o1	inconclusive: 1.31% [signal inhibitor]	
COc1ccc(N(CC(=O)Nc2cc(OC)cc(OC)c2)S(=O)(=O)c2c(C)noc2C)cc1	inconclusive: 2.28% [signal inhibitor]	
Cc1cccc(-n2c(C)cc(C(=O)C(=O)Nc3nncs3)c2C)c1	inconclusive: 0.473% [signal inhibitor]	
Cc1ccc(O)c(NC(=O)CCS(=O)(=O)c2nc(-c3cccs3)cc(C(F)(F)F)n2)c1		inconclusive: 6.31 µM [signal inhibitor, single point]
Cc1ccc(C(C)C)c(OCC(=O)Nc2cc(-c3nc4ccccc4[nH]3)ccc2C)c1	inconclusive: 7.18% [signal inhibitor]	
CCOC(=O)c1ccccc1NC(=O)CN(c1ccccc1)S(=O)(=O)c1ccc(OCC)cc1	inconclusive: 7.65% [signal inhibitor]	
Cn1c(N2CCN(C(=O)NCc3ccccc3)CC2)nc2ccccc21		inconclusive: 25.1 µM [signal inhibitor, partial curve]

Structure (SMILES)	IkBa stabilization activation	Potency
Cc1ccc(CNC(=O)c2cn(C3CCCCC3)c(=O)c3c2c2ccccc2n3C)o1	inconclusive: 3.35% [signal inhibitor]	
Cc1cc(C)cc(NC(=O)Cn2nnc(-c3ccccc3F)n2)c1	inactive	
O=C(CCc1cn(Cc2ccc(F)cc2)c2ccccc12)NC1CCCCC1	inconclusive: 0.567% [signal inhibitor]	
CCOC(=O)N1CCc2c(sc3c2c(=O)n(-c2ccc(CC)cc2)c(=O)n3Cc2cccc(Cl)c2)C1	inconclusive: -0.00926% [signal inhibitor]	
Cc1ccc(C)c(N2CCN(C(=O)C3CCC(CNS(=O)(=O)c4cccs4)CC3)CC2)c1 (stereo not drawn)	inconclusive: 7.22% [signal inhibitor]	
O=C(C(Cc1ccccc1)n1cccc1)N1CCCCC1 (stereo not drawn)	inactive	
OC(COc1c(Br)cc(Br)cc1Br)CN1CCOCC1 (stereo not drawn)	inconclusive: 2.45% [signal inhibitor]	
CCn1cc(C(=O)OCC(=O)Nc2cc(Cl)ccc2C)c(=O)c2ccc(C)nc21	inconclusive: -0.621% [signal inhibitor]	
Cc1ccc(NC(=O)CN2C(=O)C(c3ccc(F)cc3)=NC23CCCCCC3)c(C)c1	inconclusive: 0.226% [signal inhibitor]	
CCCCOc1ccc(C2C(=O)N(C3CCCCC3)CC(=O)N2C2CCCCC2)cc1 (stereo not drawn)	inactive	
CN1CCN(c2ncc3ncc(=O)n(CCC#N)c3n2)CC1	inactive: 1.52% [at 11.4 µM, scaled: untreated 0%, proteasome inhibitor 100%]	
O=C(NCCSc1c[nH]c2ccccc12)c1ccc(Cl)cc1	inconclusive: -0.458% [signal inhibitor]	
Cc1ccc(N2CC(NC(=O)CCCc3ccccc3)CC2=O)cc1 (stereo not drawn)	inconclusive: -0.401% [signal inhibitor]	
CCOC(=O)c1cccc(NC(=O)CSc2nc3ccccc3c(=O)n2CC)c1	inactive	
COc1cccc(C(c2nnnn2CCc2ccccc2)N2CCN(c3ccccc3)CC2)c1OC (stereo not drawn)	inconclusive: 1.28% [signal inhibitor]	
O=C(Cn1nc(Cc2cccnc2)c2ccccc2c1=O)N1CCN(c2ccccc2F)CC1	inconclusive: 0.785% [signal inhibitor]	
COc1ccc(CNC(=O)c2ccc(CN3C(=O)C(C)=C(c4ccc(C)cc4)S3(=O)=O)cc2)cc1	inconclusive: -0.573% [signal inhibitor]	
Cc1cc(O)c2c(C)c(CC(=O)NCc3ccccc3Cl)c(=O)oc2c1	inactive	
CCOC(=O)c1c(Nc2ccc(C)c(C)c2)nnc(-c2ccccc2)c1-c1ccccc1	inconclusive: 10.5% [signal inhibitor]	
CCOc1ccc(NC(=O)NCCN2CCN(c3cc(Cl)ccc3C)CC2)cc1	inconclusive: -9.19% [signal inhibitor]	
CCCC(=O)Nc1cc2nn(-c3ccc(OC)cc3)nc2cc1C	inactive	
Cc1cc(C)c(NC(=O)Cn2c(=O)n(CCC(C)C)c(=O)c3cccnc32)c(C)c1	inactive	
